Source: PMC5892938
Some of the results follow. At the low end of the ranking, values are background and their order means little.

These sequences were tested against GST-SBP-SLBP (stem-loop binding protein) (UniProt Q14493) (assay: targeted RNA Bind-n-Seq). Details: RBNS binding buffer: 25 mM Tris pH 7.5, 150 mM KCl, 3 mM MgCl2, 0.1% Tween, 0.5 mg/mL BSA, 1 mM DTT; 27 nM protein, 750 pM RNA pool; temperature not stated; high values mean tight binding.
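Note: DESeq read counts versus GST-SBP nonspecific binding control pulldown.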

Q: For “GGUCACGUCUCAAUCAACUCAGUCCCAGGAGUUUUCUCCUGUAAAUUCAACAGCUCGCAGUCAAG”, which binding signal (log2 fold change) is on record?
A: The binding signal (log2 fold change) was -0.139.

Q: Which binding signal (log2 fold change) does the source give for “GGUCACGUCUCAAUCAACUCUUUCCCCAGGGAAACCCCUGGUUUUUUCAACAGCUCGCAGUCAAG” here?
A: The binding signal (log2 fold change) was -0.156.

Q: Which binding signal (log2 fold change) does the source give for “GGUCACGUCUCAAUCAACUCUCAAGAGGGGGGGAAAACCCCUUUACCCUCAAAUUCAACAGCUCGCAGUCAAG” here?
A: The binding signal (log2 fold change) was -0.113.

Q: For “GGUCACGUCUCAAUCAACUCUUUUCCAGGAGUUUCCUCCUGUUAUCUCAACAGCUCGCAGUCAAG”, which binding signal (log2 fold change) is on record?
A: Its binding signal (log2 fold change) is 0.0905.

Q: With “GGUCACGUCUCAAUCAACUCUUUCCCAGGAGUUUCCUCCUGUAAACUCAACAGCUCGCAGUCAAG” as the sequence, how does the binding signal (log2 fold change) read?
A: Its binding signal (log2 fold change) is -0.0833.

Q: “GGUCACGUCUCAAUCAACUCUACUCCCAGGGAAACCCCUGGCAUUCUCAACAGCUCGCAGUCAAG” was tested. Which binding signal (log2 fold change) did it give?
A: Its binding signal (log2 fold change) is 0.0636.

Q: Which binding signal (log2 fold change) does the source give for “GGUCACGUCUCAAUCAACUCUAUCUCCAGGGAAAGCCCUGGCUAUUUCAACAGCUCGCAGUCAAG” here?
A: Its binding signal (log2 fold change) is 0.044.

Q: “GGUCACGUCUCAAUCAACUCUAUUUCAGGAGUUUCCUCCUGUUAUCUCAACAGCUCGCAGUCAAG” was tested. Which binding signal (log2 fold change) did it give?
A: The binding signal (log2 fold change) was 0.00375.

Q: Which binding signal (log2 fold change) does the source give for “GGUCACGUCUCAAUCAACUCUUCUUCCAGGGAAAACCCUGGCGUAUUCAACAGCUCGCAGUCAAG” here?
A: The binding signal (log2 fold change) was -0.129.

Q: With “GGUCACGUCUCAAUCAACUCAUCGCCAGGAGUUUACUCCUGUAUAUUCAACAGCUCGCAGUCAAG” as the sequence, how does the binding signal (log2 fold change) read?
A: Its binding signal (log2 fold change) is 0.0924.

Q: Which binding signal (log2 fold change) does the source give for “GGUCACGUCUCAAUCAACUCAUCUUCCAGGGAAAUCCCUGGCUAAUUCAACAGCUCGCAGUCAAG” here?
A: The binding signal (log2 fold change) was 0.0358.

Q: Which binding signal (log2 fold change) does the source give for “GGUCACGUCUCAAUCAACUCCAUAGAGGGGGGGAAAACCCCUUUGCCCUCAAAAUCAACAGCUCGCAGUCAAG” here?
A: Its binding signal (log2 fold change) is -0.455.

Q: Which binding signal (log2 fold change) does the source give for “GGUCACGUCUCAAUCAACUCUUUCCCCAGGGAAAACCCUGGCAUUCUCAACAGCUCGCAGUCAAG” here?
A: The binding signal (log2 fold change) was 0.0161.

Q: “GGUCACGUCUCAAUCAACUCUAGUCCAGGAGUUUACUCCUGCAAAUUCAACAGCUCGCAGUCAAG” was tested. Which binding signal (log2 fold change) did it give?
A: The binding signal (log2 fold change) was 0.00147.

Q: Which binding signal (log2 fold change) does the source give for “GGUCACGUCUCAAUCAACUCAUCGUCAGGAGUUUACUCCUGCAAUCUCAACAGCUCGCAGUCAAG” here?
A: The binding signal (log2 fold change) was 0.0262.

Q: For “GGUCACGUCUCAAUCAACUCAUGUCCAGGAGUUUACUCCUGCAAUUUCAACAGCUCGCAGUCAAG”, which binding signal (log2 fold change) is on record?
A: Its binding signal (log2 fold change) is -0.0865.

Q: How did the binding signal (log2 fold change) turn out when “GGUCACGUCUCAAUCAACUCUUUCUCCAGGGAAAUCCCUGGCUAUGUCAACAGCUCGCAGUCAAG” was run?
A: Its binding signal (log2 fold change) is -0.013.

Q: With “GGUCACGUCUCAAUCAACUCAAGGUCAGGAGUUUACUCCUGUUAAUUCAACAGCUCGCAGUCAAG” as the sequence, how does the binding signal (log2 fold change) read?
A: The binding signal (log2 fold change) was -0.0524.

Q: Which binding signal (log2 fold change) does the source give for “GGUCACGUCUCAAUCAACUCCAUAGAGGGGGGGAAAACCCCUUUGCCCUCACCAUCAACAGCUCGCAGUCAAG” here?
A: Its binding signal (log2 fold change) is -0.0249.

Q: “GGUCACGUCUCAAUCAACUCUUCCUCCAGGGAAAUCCCUGGUAUUUUCAACAGCUCGCAGUCAAG” was tested. Which binding signal (log2 fold change) did it give?
A: Its binding signal (log2 fold change) is 0.157.

Q: For “GGUCACGUCUCAAUCAACUCCCUCGAGGGGGGGAAAACCCCUUUACCCUCAACAUCAACAGCUCGCAGUCAAG”, which binding signal (log2 fold change) is on record?
A: Its binding signal (log2 fold change) is 0.141.

Q: With “GGUCACGUCUCAAUCAACUCAUCUUCAGGAGUUUACUCCUGCAUAUUCAACAGCUCGCAGUCAAG” as the sequence, how does the binding signal (log2 fold change) read?
A: Its binding signal (log2 fold change) is 0.164.

Q: For “GGUCACGUCUCAAUCAACUCACAAGAGGGGGGGAAAACCCCUUUGCCCUCAUCCUCAACAGCUCGCAGUCAAG”, which binding signal (log2 fold change) is on record?
A: Its binding signal (log2 fold change) is 0.34.

Q: Which binding signal (log2 fold change) does the source give for “GGUCACGUCUCAAUCAACUCUACUCCCAGGGAAAGCCCUGGUUUUCUCAACAGCUCGCAGUCAAG” here?
A: Its binding signal (log2 fold change) is -0.162.

Q: How did the binding signal (log2 fold change) turn out when “GGUCACGUCUCAAUCAACUCAAAAGAGGGGGGGAAAACCCCUUUACCCUCAAUAUCAACAGCUCGCAGUCAAG” was run?
A: Its binding signal (log2 fold change) is -0.163.

Q: How did the binding signal (log2 fold change) turn out when “GGUCACGUCUCAAUCAACUCUAUCUCCAGGGAAAACCCUGGCAAUCUCAACAGCUCGCAGUCAAG” was run?
A: Its binding signal (log2 fold change) is -0.0204.

Q: How did the binding signal (log2 fold change) turn out when “GGUCACGUCUCAAUCAACUCCAUCGAGGGGGGGAAAACCCCUUUACCCUCCAAAUCAACAGCUCGCAGUCAAG” was run?
A: Its binding signal (log2 fold change) is -0.171.

Q: How did the binding signal (log2 fold change) turn out when “GGUCACGUCUCAAUCAACUCUACUUCCAGGGAAACCCCUGGCAUUUUCAACAGCUCGCAGUCAAG” was run?
A: The binding signal (log2 fold change) was -0.214.

Q: For “GGUCACGUCUCAAUCAACUCAAUUUCCAGGGAAAUCCCUGGCUUUCUCAACAGCUCGCAGUCAAG”, which binding signal (log2 fold change) is on record?
A: The binding signal (log2 fold change) was -0.119.

Q: Which binding signal (log2 fold change) does the source give for “GGUCACGUCUCAAUCAACUCAAUUUCAGGAGUUUUCUCCUGCAAACUCAACAGCUCGCAGUCAAG” here?
A: The binding signal (log2 fold change) was 0.00694.

Q: For “GGUCACGUCUCAAUCAACUCUUCGCCAGGAGUUUCCUCCUGUAUAUUCAACAGCUCGCAGUCAAG”, which binding signal (log2 fold change) is on record?
A: Its binding signal (log2 fold change) is 0.189.

Q: For “GGUCACGUCUCAAUCAACUCCAUAGAGGGGGGGAAAACCCCUUUGCCCUCAAUAUCAACAGCUCGCAGUCAAG”, which binding signal (log2 fold change) is on record?
A: The binding signal (log2 fold change) was -0.0597.

Q: With “GGUCACGUCUCAAUCAACUCUACUUCCAGGGAAACCCCUGGCUUUCUCAACAGCUCGCAGUCAAG” as the sequence, how does the binding signal (log2 fold change) read?
A: The binding signal (log2 fold change) was -0.139.

Q: “GGUCACGUCUCAAUCAACUCUCACGAGGGGGGGAAAACCCCUUUGCCCUCAUCAUCAACAGCUCGCAGUCAAG” was tested. Which binding signal (log2 fold change) did it give?
A: Its binding signal (log2 fold change) is -0.103.

Q: Which binding signal (log2 fold change) does the source give for “GGUCACGUCUCAAUCAACUCUCUAGAGGGGGGGAAAACCCCUUUGCCCUCGUUUUCAACAGCUCGCAGUCAAG” here?
A: The binding signal (log2 fold change) was -0.397.

Q: Which binding signal (log2 fold change) does the source give for “GGUCACGUCUCAAUCAACUCCAAAGAGGGGGGGAAAACCCCUUUGCCCUCGAAUUCAACAGCUCGCAGUCAAG” here?
A: Its binding signal (log2 fold change) is 0.0245.

Q: For “GGUCACGUCUCAAUCAACUCGUUUUCAGGAGUUUUCUCCUGUAUAUUCAACAGCUCGCAGUCAAG”, which binding signal (log2 fold change) is on record?
A: The binding signal (log2 fold change) was -0.152.
